The values below come from the supplement of paper PMC3334620.

Whole data set: some 33,000 sequences, median “E-score (-0.5 to 0.5)” near -0.016, cut for the highest 2% near 0.31. This is one part of the list.

For this assay, the target named is Cst6 (UniProt P40535). As to the kind of experiment: PBM E-score (8-mer binding enrichment) (E-score (-0.5 to 0.5)); higher = stronger / more preferred TF binding; most listed sequences are background and not binding sites. The following applies: protein concentration: 200 nM; construct: GST-DNA-binding domain. A digest of the protocol: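 Using PURExpress in vitro transcription/translation, GST-tagged yeast transcription factors were made in full-length or DNA-binding-domain form. These were applied at about 100-200 nM to double-stranded universal all-10-mer Agilent arrays, and bound protein was detected with fluorescent anti-GST. Scans were normalised with masliner before the Universal PBM Analysis Suite assigned E-scores to ungapped eight-base words pooled with their reverse complements.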
For CGAGCGCG, the “PBM E-score” value was -0.0601.

For the sequence CACAAGGG, the “PBM E-score” value is -0.232.

As to AGGTGGCC, the “PBM E-score” value is -0.137.

In the case of ATAAGTAG, the “PBM E-score” value is -0.0244.

Regarding AGTGGGAC, the “PBM E-score” value was -0.201.

ACACAGGT: the “PBM E-score” value was -0.226.

On to CTTATCTA, for which the “PBM E-score” value came out at 0.274.

Regarding ATGCGAAA, the “PBM E-score” value worked out at 0.114.

Regarding CCTTCCAG, the “PBM E-score” value is -0.101.

Regarding GGCCCGCA, the “PBM E-score” value was -0.213.

For the sequence AGATGCCA, the “PBM E-score” value is -0.0689.

As for AATGAAGA, the “PBM E-score” value amounted to 0.216.

Regarding AGAGCGTG, the “PBM E-score” value was -0.211.

For the sequence CCATGACC, the “PBM E-score” value worked out at 0.0749.

Take AGCCGCGC: the “PBM E-score” value came out at 0.18.

GAGTCTTA: the “PBM E-score” value is -0.241.

In the case of GGTCTCCA, the “PBM E-score” value was -0.104.

Take AATTACGA: the “PBM E-score” value turned out to be 0.286.

As to CCTTGACG, the “PBM E-score” value was 0.094.

With CGGCTGCC, the “PBM E-score” value worked out at 0.00372.

As for AGGATGTG, the “PBM E-score” value is -0.232.

Consider ACGGGCCG, for which the “PBM E-score” value is -0.0938.

Regarding TCCAGTCA, the “PBM E-score” value was -0.0187.

For GATTTAGC, the “PBM E-score” value was -0.025.

Consider TAAACCAA, for which the “PBM E-score” value is 0.134.

For ATTTACTC, the “PBM E-score” value came to 0.153.

Take AGCGTAAT: the “PBM E-score” value amounted to 0.257.

In the case of AGGTCGGA, the “PBM E-score” value is -0.136.

For TGCTTAAA, the “PBM E-score” value came out at 0.118.

Turning to GCCCTTCA, the “PBM E-score” value was -0.123.

Take CATGTATC: the “PBM E-score” value stood at 0.141.

As to CGGTATCA, the “PBM E-score” value was 0.0799.

Regarding CCAACGGG, the “PBM E-score” value was -0.134.

Consider GACGTCCC, for which the “PBM E-score” value came to 0.016.

AGAACATG: the “PBM E-score” value was determined as 0.116.

In the case of GGCTGTGA, the “PBM E-score” value amounted to 0.043.

GAGCAACC: the “PBM E-score” value is -0.0196.

On to ATTAGACG, for which the “PBM E-score” value was determined as 0.0574.

Turning to ATTGAATA, the “PBM E-score” value came to 0.305.

Consider CGAACGGC, for which the “PBM E-score” value came to 0.258.

Regarding ATTATGAG, the “PBM E-score” value was 0.22.

Consider ATCCACAG, for which the “PBM E-score” value is -0.0393.

For AGTAGGGG, the “PBM E-score” value is -0.19.

For AGTCTTCA, the “PBM E-score” value was -0.0551.

AACGAGGC: the “PBM E-score” value was found to be 0.104.

In the case of AAAGTTGT, the “PBM E-score” value was 0.213.

As for GATTGCCA, the “PBM E-score” value is -0.0693.

Consider AACCAAAT, for which the “PBM E-score” value was 0.0907.

Turning to CTGCGTTA, the “PBM E-score” value is -0.204.

Take GCATGACA: the “PBM E-score” value turned out to be 0.288.

With ATAGACAT, the “PBM E-score” value was -0.124.

In the case of CTTCGGCC, the “PBM E-score” value was -0.0647.

For GGAGACCC, the “PBM E-score” value was -0.212.

For GGGCAGAC, the “PBM E-score” value is -0.221.

For the sequence CACCGGCC, the “PBM E-score” value was -0.202.

In the case of CTCACTGA, the “PBM E-score” value turned out to be 0.105.

Consider AATCGGCA, for which the “PBM E-score” value was found to be 0.197.

Consider CAAAAGAG, for which the “PBM E-score” value is -0.0312.

Take GGCAGTGA: the “PBM E-score” value came out at 0.13.

Regarding AAAAGTTA, the “PBM E-score” value came out at 0.229.

As to ACTTTCGA, the “PBM E-score” value was 0.0179.

For GCGTACGC, the “PBM E-score” value is -0.121.

Regarding ATAACAAG, the “PBM E-score” value is 0.208.

Turning to AAAGGTAA, the “PBM E-score” value was -0.0156.

For the sequence CCTACAGG, the “PBM E-score” value was -0.294.

On to TCTTTCCA, for which the “PBM E-score” value was 0.0838.

On to CCAGCCCG, for which the “PBM E-score” value is -0.363.

In the case of CTCCGGAA, the “PBM E-score” value was -0.272.

On to GACTACGC, for which the “PBM E-score” value was -0.181.

For ACTATCCG, the “PBM E-score” value was 0.0433.

Consider ATATTTGG, for which the “PBM E-score” value worked out at 0.223.

For the sequence CGATGGAC, the “PBM E-score” value is -0.0932.

For AATTCAAC, the “PBM E-score” value was found to be 0.183.

As for GGCCGCAC, the “PBM E-score” value stood at 0.0605.

In the case of GATGTAAA, the “PBM E-score” value is 0.236.

For the sequence TCGTAACA, the “PBM E-score” value amounted to 0.129.

In the case of AATCCCGT, the “PBM E-score” value was found to be 0.127.

GGAAAAGA: the “PBM E-score” value came out at 0.0532.

With ATTACGGA, the “PBM E-score” value was 0.154.

In the case of AGGATCTA, the “PBM E-score” value is -0.231.

On to CCCTTAGC, for which the “PBM E-score” value is -0.274.

As to CGTTAAAC, the “PBM E-score” value was found to be 0.0283.

For the sequence CACTAAAA, the “PBM E-score” value turned out to be 0.14.

As for TATGATCA, the “PBM E-score” value turned out to be 0.207.

AGAGGTAA: the “PBM E-score” value was -0.119.

Regarding GATCCGAA, the “PBM E-score” value is -0.00888.
